# Laboratory results published in ChEMBL document CHEMBL5606460, “ASAP - DENV-2 NS2B-NS3 protease fluorescence single point” (2024).
# Out of some 2,000 compounds screened, about 110 (5.5%) showed an effect of 50% or more. The list shows a part of the results.
# Target: Genome polyprotein (dengue virus type 2) (UniProt P29990)
# [1] = Thailand/16681/1984, Concentration 25.0 uM, Number of replicates 1.0
compound,measurement,setting,value
O=Cc1ccc(N2CCC(C(=O)Nc3ccc(C(F)(F)F)cc3)CC2)cc1,inhibition,[1],13.8%
COc1ccc2c(N)nccc2c1,inhibition,"Thailand/16681/1984, Concentration 49.95 uM, Number of replicates 2.0, Standard deviation 7.078594311778854 %",-6.76%
same,inhibition,"Thailand/16681/1984, Concentration 99.9 uM, Number of replicates 2.0, Standard deviation 6.180300237733915 %",-7.47%
O=Cc1ccc(N2CCC(C(=O)NCCOCc3ccccc3)CC2)cc1,inhibition,[1],12.8%
Cc1cc(CO)c2cccc(CC(=O)N3CC[C@@H](O)C3)c2n1,inhibition,"Thailand/16681/1984, Concentration 49.95 uM, Number of replicates 2.0, Standard deviation 0.5275777280947552 %",-6.57%
same,inhibition,"Thailand/16681/1984, Concentration 99.9 uM, Number of replicates 2.0, Standard deviation 0.031156299118405218 %",-2.69%
O=Cc1ccc(N2CCC(C(=O)Nc3ccc(O)cc3[N+](=O)[O-])CC2)cc1,inhibition,[1],24.5%
O=C(O)C1CCN(Cc2c[nH]c3ccccc23)CC1,inhibition,"Thailand/16681/1984, Concentration 49.5 uM, Number of replicates 2.0, Standard deviation 1.605007793722273 %",-4.66%
same,inhibition,"Thailand/16681/1984, Concentration 99.01 uM, Number of replicates 2.0, Standard deviation 1.896018464285867 %",-4.9%
same,inhibition,"Thailand/16681/1984, Concentration 198.0 uM, Number of replicates 2.0, Standard deviation 2.2003780532972255 %",-4.86%
O=Cc1ccc(N2CCC(C(=O)Nc3nnc(Cl)cc3Br)CC2)cc1,inhibition,[1],33%
c1ccc2c([C@H]3CCN(CC[C@H]4CCCO4)C3)c[nH]c2c1,inhibition,"Thailand/16681/1984, Concentration 49.5 uM, Number of replicates 2.0, Standard deviation 0.7413707781799035 %",-0.151%
same,inhibition,"Thailand/16681/1984, Concentration 99.01 uM, Number of replicates 2.0, Standard deviation 0.23682680855853402 %",0.861%
same,inhibition,"Thailand/16681/1984, Concentration 198.0 uM, Number of replicates 2.0, Standard deviation 0.5777055881333691 %",2.17%
NCc1cccc(NC(=O)[C@H]2COC3(CCOCC3)N2C(=O)OCc2ccccc2)c1,inhibition,"Thailand/16681/1984, Concentration 49.5 uM, Number of replicates 2.0, Standard deviation 0.039998033586414614 %",-2.12%
same,inhibition,"Thailand/16681/1984, Concentration 99.01 uM, Number of replicates 2.0, Standard deviation 0.28658356559600956 %",-1.66%
same,inhibition,"Thailand/16681/1984, Concentration 198.0 uM, Number of replicates 2.0, Standard deviation 0.4465755418909861 %",-0.337%
O=Cc1ccc(N2CCC(C(=O)NCCCN3CCS(=O)(=O)CC3)CC2)cc1,inhibition,[1],14.6%
O=Cc1ccc(N2CCC(C(=O)N3CCCC[C@@H]3Cc3ccccc3)CC2)cc1,inhibition,[1],12.9%
CC(C)(CO)NC(=O)c1cc(Cl)cc(NC(=O)CCNc2cc(Cl)cc(Cl)c2)c1,inhibition,"Thailand/16681/1984, Concentration 49.5 uM, Number of replicates 2.0, Standard deviation 0.7365141546791447 %",-1.53%
same,inhibition,"Thailand/16681/1984, Concentration 99.01 uM, Number of replicates 2.0, Standard deviation 2.0131860287965764 %",5.29%
same,inhibition,"Thailand/16681/1984, Concentration 198.0 uM, Number of replicates 2.0, Standard deviation 4.301058663672598 %",4.92%
CC(C)Nc1nc2cc(NC(=O)[C@@H](N)c3ccccc3)ccc2[nH]1,inhibition,"Thailand/16681/1984, Concentration 49.5 uM, Number of replicates 2.0, Standard deviation 0.5151064756203817 %",-3.2%
same,inhibition,"Thailand/16681/1984, Concentration 99.01 uM, Number of replicates 2.0, Standard deviation 1.4545723729827629 %",-6.38%
COCCn1cccc(C(=O)Nc2ccncc2C)c1=O,inhibition,"Thailand/16681/1984, Concentration 49.5 uM, Number of replicates 2.0, Standard deviation 0.5368463890647557 %",0.774%
same,inhibition,"Thailand/16681/1984, Concentration 99.01 uM, Number of replicates 2.0, Standard deviation 0.49107619706080435 %",6.65%
same,inhibition,"Thailand/16681/1984, Concentration 198.0 uM, Number of replicates 2.0, Standard deviation 0.8434117123195074 %",14.6%
O=Cc1ccc(N2CCC(C(=O)Nc3ccncc3Br)CC2)cc1,inhibition,[1],11.6%
CCOc1ccc(CNC(=O)C2CCN(c3ccc(C=O)cc3)CC2)cc1,inhibition,[1],11.3%
COC(=O)c1cncc(OCc2cc(OC)nc(N3CCNCC3)n2)c1,inhibition,"Thailand/16681/1984, Concentration 49.5 uM, Number of replicates 2.0, Standard deviation 4.08627143265135 %",-2.43%
same,inhibition,"Thailand/16681/1984, Concentration 99.01 uM, Number of replicates 2.0, Standard deviation 3.6715835957511156 %",3.39%
same,inhibition,"Thailand/16681/1984, Concentration 198.0 uM, Number of replicates 2.0, Standard deviation 1.8331343547832488 %",18.3%
N#Cc1ccc(C[C@H](NC(=O)c2ccccc2)C(=O)N2CCC[C@@H](CNC(=N)N)C2)cc1,inhibition,"Thailand/16681/1984, Concentration 49.5 uM, Number of replicates 2.0, Standard deviation 0.9652770488589378 %",-2.01%
same,inhibition,"Thailand/16681/1984, Concentration 99.01 uM, Number of replicates 2.0, Standard deviation 1.769585842360705 %",0.384%
same,inhibition,"Thailand/16681/1984, Concentration 198.0 uM, Number of replicates 2.0, Standard deviation 0.6833160653139061 %",2.07%
O=C(Cc1cnc[nH]1)NC1CCN(C(=O)c2cccc3[nH]ncc23)CC1,inhibition,"Thailand/16681/1984, Concentration 49.5 uM, Number of replicates 2.0, Standard deviation 0.5712330544607026 %",-0.001%
same,inhibition,"Thailand/16681/1984, Concentration 99.01 uM, Number of replicates 2.0, Standard deviation 0.88648652906749 %",0.297%
same,inhibition,"Thailand/16681/1984, Concentration 198.0 uM, Number of replicates 2.0, Standard deviation 1.4162803173835237 %",-0.087%
Cc1nccc(Cn2cc(C3CCNCC3)c(C)n2)n1,inhibition,"Thailand/16681/1984, Concentration 49.5 uM, Number of replicates 2.0, Standard deviation 0.12424043789356491 %",-1.07%
same,inhibition,"Thailand/16681/1984, Concentration 99.01 uM, Number of replicates 2.0, Standard deviation 0.32682664095966646 %",-0.665%
same,inhibition,"Thailand/16681/1984, Concentration 198.0 uM, Number of replicates 2.0, Standard deviation 1.945197851645592 %",1.76%
NS(=O)(=O)c1nc(C(=O)N2CCc3c(CO)cccc32)n2ccccc12,inhibition,"Thailand/16681/1984, Concentration 49.5 uM, Number of replicates 2.0, Standard deviation 1.0653576909274516 %",13.7%
same,inhibition,"Thailand/16681/1984, Concentration 99.01 uM, Number of replicates 2.0, Standard deviation 2.1758259967530833 %",14.9%
same,inhibition,"Thailand/16681/1984, Concentration 198.0 uM, Number of replicates 2.0, Standard deviation 0.4448171648343994 %",17%
Cc1cnc2ccccc2c1NC(=O)c1cccn(CC(C)C)c1=O,inhibition,"Thailand/16681/1984, Concentration 49.5 uM, Number of replicates 2.0, Standard deviation 0.7211595098575954 %",0.008%
same,inhibition,"Thailand/16681/1984, Concentration 99.01 uM, Number of replicates 2.0, Standard deviation 0.6129588138081243 %",4.71%
same,inhibition,"Thailand/16681/1984, Concentration 198.0 uM, Number of replicates 2.0, Standard deviation 0.2617063039687573 %",13%
